From ChEMBL document CHEMBL1148800, “Novel 2,7-dialkyl-substituted 5(S)-amino-4(S)-hydroxy-8-phenyl-octanecarboxamide transition state peptidomimetics are potent and orally active inhibitors of human renin” (J Med Chem, 2007) come the findings set out here.

The species named for one data set is Callithrix jacchus. Description: animal or person. As to conditions: Plasma, po, 6 h, read-out: Inhibition.
The nature of data set [1]: physchem. The conditions noted are these: buffer, pH 6.
A short description of data set [2]: in vivo. As to conditions: marmoset.
Data set [3] in a line: in vivo. The conditions noted are these: marmoset. The source holds these as a separate data set.
Data set [4] in a line: physchem.
Data set [5] in a line: in vivo. As to conditions: marmoset, 3 mg/kg.
A short description of data set [6]: physchem. The conditions noted are these: buffer, pH 7.
The nature of data set [7]: in vivo. The conditions noted are these: marmoset. The source holds these as a separate data set.
Data set [8] is described as follows: physchem. As to conditions: octanol/water, pH 7.4.
A short description of data set [9]: in vivo. The conditions noted are these: marmoset, po, 10 mg/kg.

In the case of `CNC(=O)CCCNC(=O)[C@H](C)C[C@H](O)[C@@H](N)C[C@H](Cc1ccc(OC)c(OCCCOC)c1)C(C)C`, the inhibition in vivo at 3 mg/kg in the data set filed under Callithrix jacchus was 74%.

Take `CCCCNC(=O)[C@H](C)C[C@H](O)[C@@H](N)C[C@H](Cc1ccc(OC)c(OCCCOC)c1)C(C)C.Cl`: the figures for the solubility in “physchem [1]” and in “physchem [6]” were 56 mg/mL and 11 mg/mL, respectively. For the same compound, the half-life (commonly the time in which the quantity being followed falls by half) in “in vivo [2]” was 2 h. The Vd (in general, the apparent volume that relates the amount in the body to the concentration in plasma or blood) in “in vivo [3]” was 0.6 L/kg. Also, in the data set “physchem [4]”, the pKa – broadly, the pH at which an ionisable group is half protonated – came out at 9.13. Further, the bioavailability in “in vivo [5]” and in “in vivo [9]” was 16% in each case. The clearance (commonly the rate of elimination divided by the concentration) in “in vivo [7]” stood at 5.2 mL/min/kg. Besides, in the data set “physchem [8]”, the logD (usually lipophilicity at a set pH, counting ionised and neutral species) was determined as 1.96.
